According to the supplement of paper PMC3334620:
In all, about 33,000 sequences were measured (“E-score (-0.5 to 0.5)”: median about -0.012, highest 2% from about 0.27 on). The list shows a part of the results.

molecular target: T1, Vhr1 (UniProt P40522); experiment: PBM E-score (8-mer binding enrichment) (E-score (-0.5 to 0.5)); higher = stronger / more preferred TF binding; most listed sequences are background and not binding sites; settings: protein concentration: 200 nM; construct: GST-full length
T1 sequence: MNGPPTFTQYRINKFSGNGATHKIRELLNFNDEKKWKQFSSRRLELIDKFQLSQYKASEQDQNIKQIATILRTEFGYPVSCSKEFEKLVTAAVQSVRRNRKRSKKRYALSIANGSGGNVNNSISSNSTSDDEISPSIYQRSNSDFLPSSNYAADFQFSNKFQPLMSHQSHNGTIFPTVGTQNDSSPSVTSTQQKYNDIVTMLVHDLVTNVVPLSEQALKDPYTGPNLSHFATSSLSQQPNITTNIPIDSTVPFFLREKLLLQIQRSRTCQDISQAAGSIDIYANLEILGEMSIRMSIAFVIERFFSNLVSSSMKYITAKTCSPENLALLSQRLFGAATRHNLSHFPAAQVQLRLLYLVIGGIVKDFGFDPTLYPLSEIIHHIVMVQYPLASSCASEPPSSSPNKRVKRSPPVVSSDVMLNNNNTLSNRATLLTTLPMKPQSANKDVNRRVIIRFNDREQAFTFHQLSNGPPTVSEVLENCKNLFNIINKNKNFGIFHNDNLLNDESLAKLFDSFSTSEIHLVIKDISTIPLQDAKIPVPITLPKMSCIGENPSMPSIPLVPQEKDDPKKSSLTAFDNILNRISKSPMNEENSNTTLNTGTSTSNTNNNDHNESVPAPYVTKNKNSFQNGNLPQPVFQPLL
Procedure, shortened: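 Full-length yeast transcription factors or their DNA-binding domains, GST-tagged and expressed with PURExpress, were applied at about 100-200 nM to universal all-10-mer Agilent arrays. These arrays had been made double-stranded by primer extension on fresh or once-stripped slides. Detection used fluorescent anti-GST, normalisation used masliner, and E-scores for ungapped eight-base words pooled with reverse complements came from the Universal PBM Analysis Suite.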

Sequence	PBM E-score
ACTACACT	0.211
ATCGCTCG	0.0732
ACTGGAAC	-0.0796
TTTATAAA	-0.0811
AGTCGATG	0.149
AAGCCAGT	-0.12
ATGAGGTG	-0.0279
TGGACACA	0.0645
GCAGGGTA	-0.0897
AATCCCTG	0.0135
AGCGTTGA	-0.0365
GACGGTGC	-0.0439
GTGGCCAC	0.185
CGATGATC	0.17
ATGTCACG	0.125
ACTCGCGG	0.209
AGGGAGGC	-0.122
AAGACGAG	-0.124
GAGGCAAA	0.0323
CTTTTCGA	-0.183
GTATCGAA	0.0589
CGAACAAA	0.0402
TATTCGCA	0.0845
CCATATGA	0.176
ATAGAGGC	-0.207

Sequence	PBM E-score
ATTCAGGA	0.102
CTTCACGA	-0.205
AGTATCGC	0.0154
AAAGAACT	-0.173
GCATGGTA	0.047
GCACGCCA	-0.138
ATTGTTCG	0.0472
CAACCGAG	0.178
GCTCGAAA	-0.0692
GCGGCGCC	0.174
TCTCTAAA	-0.242
GACCTCAA	-0.0204
CAGCGAAG	0.00147
CCCACCGC	0.14
ATCTCCTG	0.0894
CTGGACAA	-0.146
CAACCCAG	0.0684
ACCACCGA	0.0503
CGACAAAA	-0.0623
CCTCCTGC	-0.139
AACCTTGG	-0.274
CGCATTAA	-0.0276
CCCTCACA	-0.0302
ACCATCTC	0.173
AGTGCGAT	0.125

Sequence	PBM E-score
TCTGCCCA	-0.179
GGTTTTGA	-0.0155
GGTTCAGA	-0.0858
AGAGGACC	-0.0963
CTTTTGGA	-0.219
CCGATACC	-0.088
TCCAGAGA	0.0238
TCAATAAA	-0.173
CAATGGGG	-0.0602
CTGGGGGA	-0.114
CATAGTTC	0.147
CGAACACC	0.0727
AGGAGGAC	-0.208
CCGCTCTA	-0.0369
ATTGGGCC	-0.049
CCCAGCGG	-0.0619
CGGCATTA	0.0768
GCATGGCC	-0.0804
GCCTTCCC	-0.24
TCGTACGA	-0.0873
ATATAATC	-0.128
AACCACGG	0.101
ACTAAGTC	0.138
TATAAAGA	-0.214
CCCGGCCC	0.0496

Sequence	PBM E-score
ACTATCGC	0.0315
CTTCTTAC	-0.221
AAAGCTGT	-0.103
GCCAATAA	0.0719
CAGCCCAC	-0.0271
ACTCTCGA	0.00975
AGCTAGGG	-0.0759
ACAGTCCG	0.00215
ACCCTATG	0.136
CGTATTAA	-0.0144
GCGGGGCC	0.101
AACAAAAT	-0.0572
CAGGCTCC	0.0755
AATGAACG	-0.0965
AATACGAG	-0.00968
AACCTACC	0.105
AACCATCC	0.229
CTCATCAA	-0.0861
CGATAGCA	-0.00614
ATGATCTA	0.176
AATCATCC	0.405
AAACCGTA	-0.165
ATTCGCTA	-0.143
AGGGCGCC	-0.0248
CATACGGC	0.143

Sequence	PBM E-score
GATATAGA	0.0295
ACCAGTAC	0.0612
ACTAGGCT	0.154
CACGCACC	-0.035
AGGCTAGA	-0.154
CCTTCTAG	-0.342
CTGTCTGC	-0.214
CTCAACCA	0.059
CGACCCCA	0.079
ACGGTTGG	-0.0958
AGGTCACT	-0.135
ACGGTAGG	-0.0389
AGCGAACC	0.00911
CTGGGTAC	0.196
AGTGGAAC	-0.0701
CAGGCTTA	-0.118
TCCGTAGA	-0.253
TAAACCTA	0.0156
CGGTGCTC	0.135
ATAATACG	0.0457
AACGGAAA	-0.17
CAGGCCCG	-0.0654
CACTCACG	0.238
ACATACTG	0.236
CTGATACC	-0.0358

Sequence	PBM E-score
AGAAATCG	-0.209
GACTCATA	0.388
CGGCGCTC	-0.173
TCGCGTAA	0.0342
AGTCTCGA	0.0864
CTTCTCCC	-0.159
GTCCAGCA	-0.0682
AGTTAAGC	-0.166
ACTAACAC	0.246
AAGTCTCA	-0.14
CTAATGAA	0.0817
AAAGATAG	-0.188
AACGCATC	-0.124
CCTAATCG	0.0221
CTTTTGAA	-0.293
CTTGGAGA	-0.0158
CGCGAAAA	-0.064
ATATTATA	0.058
ATACACCG	-0.0231
ACGGAAGA	-0.0235
CTGGTCAA	-0.145
CTAGACCA	-0.0735
CGGCCTGA	-0.258
AAGCGGCC	-0.148
ATTTAGAA	-0.171

Sequence	PBM E-score
CCGTACCG	0.00374
GGCACAAA	-0.125
GACAAAGA	-0.12
CAGTGTAA	0.16
CACGAGCG	0.0391
GGACCCAC	0.196
AACCATTA	0.249
AGGAGCTC	-0.274
CCGGTCTA	-0.0435
GAGGATGA	0.145
AGACCATC	0.0276
CAGGTCTA	0.0507
CACTCCTC	0.183
CTACGACC	0.12
AGCTCCGG	0.102
GAGATTGC	-0.0236
AGCGTAGC	-0.142
AATAGCGG	-0.0726
GAGTATTA	0.117
CCTTCGTC	-0.164
CTCCGCCC	0.0697
GCAGAGTA	-0.0474
